Data reported in publication PMC4336329 (PLoS ONE, 2015).
Hit rate of the full screen: of about 310,000 compounds, about 14,000 (4.5%) showed an effect of 50% or more. The effect is printed as a negative number. Some of the results follow.

Molecular target: human ether-à-go-go-related gene (hERG) potassium channel (human, UniProt Q12809)
Assay: primary screen, population patch clamp on CHO cells stably expressing hERG
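Note: peak tail current of the secondary pulse compared with the same well before compound.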

human ether-à-go-go-related gene (hERG) potassium channel, sequence (Q12809 whole entry, looked up): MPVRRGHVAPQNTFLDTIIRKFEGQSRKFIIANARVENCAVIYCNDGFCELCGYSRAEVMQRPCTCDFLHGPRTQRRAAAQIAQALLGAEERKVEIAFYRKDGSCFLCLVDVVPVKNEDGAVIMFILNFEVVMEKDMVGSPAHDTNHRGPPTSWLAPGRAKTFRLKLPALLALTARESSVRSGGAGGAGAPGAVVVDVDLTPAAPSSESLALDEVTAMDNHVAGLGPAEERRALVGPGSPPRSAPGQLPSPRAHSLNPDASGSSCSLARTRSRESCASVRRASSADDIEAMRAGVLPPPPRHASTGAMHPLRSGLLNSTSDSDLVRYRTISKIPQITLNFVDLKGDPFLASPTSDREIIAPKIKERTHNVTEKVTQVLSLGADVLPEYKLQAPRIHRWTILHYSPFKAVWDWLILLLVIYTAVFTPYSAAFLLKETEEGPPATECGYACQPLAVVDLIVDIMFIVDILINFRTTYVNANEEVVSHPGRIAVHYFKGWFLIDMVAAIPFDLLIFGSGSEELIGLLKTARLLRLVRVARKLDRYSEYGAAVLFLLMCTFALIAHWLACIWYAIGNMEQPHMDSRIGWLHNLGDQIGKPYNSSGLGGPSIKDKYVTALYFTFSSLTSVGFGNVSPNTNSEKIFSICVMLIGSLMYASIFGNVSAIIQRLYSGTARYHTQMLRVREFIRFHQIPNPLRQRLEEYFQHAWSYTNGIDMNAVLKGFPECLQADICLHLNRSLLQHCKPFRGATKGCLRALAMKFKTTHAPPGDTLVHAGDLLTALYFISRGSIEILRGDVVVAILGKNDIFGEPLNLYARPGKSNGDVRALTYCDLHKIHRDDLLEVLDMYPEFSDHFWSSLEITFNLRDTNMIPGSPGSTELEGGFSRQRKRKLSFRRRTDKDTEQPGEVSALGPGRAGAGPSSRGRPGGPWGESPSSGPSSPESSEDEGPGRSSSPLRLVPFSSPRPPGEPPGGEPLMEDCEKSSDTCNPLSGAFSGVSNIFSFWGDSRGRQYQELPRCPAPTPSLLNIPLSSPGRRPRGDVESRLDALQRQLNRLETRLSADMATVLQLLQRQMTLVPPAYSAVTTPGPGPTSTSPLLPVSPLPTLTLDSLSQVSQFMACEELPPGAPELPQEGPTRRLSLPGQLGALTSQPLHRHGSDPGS

Point of comparison: `Cc1ccc(S(=O)(=O)N(C)c2ccc(OCC(=O)O)cc2)cc1`, “hERG current change (%, negative = inhibition) at 10uM” value 6.45%. Against it:
- CC(Nc1ncnc2ccccc12)c1ccccc1 (stereo not drawn) — lower, 5.95%
- CCOC(=O)N1CCC(NC(=O)c2ccc3c(Cl)c4c(nc3c2)CCCC4)CC1 — lower, -36.6%
- CC(C)COC(=O)NCC12C=CC(O1)C1C(=O)N(c3ccc(Cl)cc3)C(=O)C12 (stereo not drawn) — lower, 4.85%
- CN(C1CCCCC1)S(=O)(=O)c1ccc(S(=O)(=O)N2CCN(CCC#N)CC2)cc1 — lower, 2.73%
- O=C(CN1C(=O)NC2(CCCC2)C1=O)Nc1cccc(C(F)(F)F)c1 — higher, 17%
- COc1cc(C2/C(=C(\O)c3ccc4c(c3)OCCO4)C(=O)C(=O)N2c2nnc(C)s2)cc(OC)c1OC (stereo not drawn) — higher, 18.3%
- CS(=O)(=O)N1CCN(c2ccc(C(=O)NC34CC5CC(CC(C5)C3)C4)cc2[N+](=O)[O-])CC1 — higher, 9.45%
- CCOC(=O)C1=C(C)NC(=S)NC1C (stereo not drawn) — higher, 14.3%
- Cc1ccc(C(=O)/C=C/NCc2ccc(F)cc2)cc1 — lower, -9.71%
- Cc1ccccc1Oc1ncccc1C(=O)/C(C#N)=C/N(C)C — lower, 6.43%
- CCOc1ccccc1NC(=O)C1CCCN(S(=O)(=O)c2ccc(OC)c(C)c2)C1 (stereo not drawn) — lower, -5.35%
- Cc1ccc(C(=O)Nc2cc(C(F)(F)F)ccc2N2CCCCC2)cc1[N+](=O)[O-] — higher, 13.6%
- O=C1CCC(=O)N1c1nc2nc(-c3ccccc3)cc(=O)n2[nH]1 — higher, 29.3%
- Cc1cc(N2C(=O)C3C4C=CC(C4)C3C2=O)ccc1Br (stereo not drawn) — lower, 3.78%
- CCNC(=O)CSc1nc2cc(S(=O)(=O)Nc3ccc(OC)cc3)ccc2o1 — lower, 2.62%
- C=CCN1C(=O)C(CC(=O)Nc2ccc(OC)cc2)N(Cc2ccco2)C1=S (stereo not drawn) — lower, -22.5%
- CC1CCCN(C(=O)COc2ccc(Nc3ccccc3)cc2)C1 (stereo not drawn) — lower, -12.6%
- O=c1c2[nH]c3ccccc3c2ncn1CCN1CCOCC1 — lower, 4.87%
- Cc1cccc(C)c1NC(=O)CSc1nnc(C)n1CC1CCCO1 (stereo not drawn) — higher, 14.7%
- Cc1nc(SCC(=O)Nc2nnc(C(C)C)s2)n[nH]1 — higher, 19.2%
- COc1ccc2nc(NC(=O)CCn3cccc3)sc2c1 — lower, 0.405%
- COC(=O)c1ccc(/C=N/n2cnnc2)cc1 — higher, 10.1%
- CCOc1ccc(N2C(=O)C(c3ccccc3)=C(c3nc4ccccc4s3)C2NC(C)=O)cc1 (stereo not drawn) — lower, 6.42%
